# Whole data set: some 33,000 sequences, median “E-score (-0.5 to 0.5)” near -0.013, cut for the highest 2% near 0.3. The list shows a part of the results.
# Molecular target: T1, Msn1 (UniProt P22148)
# T1 sequence: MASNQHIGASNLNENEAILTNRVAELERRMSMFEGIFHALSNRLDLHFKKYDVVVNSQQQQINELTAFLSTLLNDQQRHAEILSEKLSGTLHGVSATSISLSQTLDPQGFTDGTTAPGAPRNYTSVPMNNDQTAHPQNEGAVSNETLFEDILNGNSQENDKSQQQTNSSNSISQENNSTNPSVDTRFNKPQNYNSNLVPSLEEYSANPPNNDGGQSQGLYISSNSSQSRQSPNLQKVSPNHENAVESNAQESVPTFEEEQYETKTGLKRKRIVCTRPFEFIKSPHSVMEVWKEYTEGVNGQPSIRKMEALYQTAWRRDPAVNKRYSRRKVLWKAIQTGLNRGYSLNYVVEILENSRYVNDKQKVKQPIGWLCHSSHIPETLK
# Assay: PBM E-score (8-mer binding enrichment) (E-score (-0.5 to 0.5)); higher = stronger / more preferred TF binding; most listed sequences are background and not binding sites
# Details: protein concentration: 200 nM; construct: GST-full length
# Method: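 Universal 'all 10-mer' protein binding microarrays (Agilent AMADID 015681) probed with GST-tagged S. cerevisiae TFs (full-length or DBD) made by in vitro transcription/translation (PURExpress), about 100-200 nM. Bound TF was detected with fluorescent anti-GST. Each ungapped 8-mer (which stands for itself and its reverse complement) is scored by the PBM enrichment score (E-score), a modified Wilcoxon-Mann-Whitney statistic from -0.5 to +0.5, computed with the Universal PBM Analysis Suite. Scale: above 0.35 generally sequence-specific binding.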
row,Sequence,PBM E-score
1,AGAGATAT,0.0248
2,AGTGAAGA,-0.123
3,GAGTGCAC,-0.15
4,AATTTTCC,0.127
5,CCTATAAA,-0.197
6,CGGGAAAA,0.0999
7,GCCGGCGA,0.00053
8,ATTTTGCA,0.17
9,AGCCGTAT,-0.0025
10,GACCGGCC,-0.0638
11,CCAGTGCC,-0.17
12,ACGCAGCC,-0.0365
13,AAATTAGT,0.208
14,AAAAGCCG,-0.0909
15,CCGCGCAC,-0.149
16,AATCAAAA,0.089
17,GAGGCAGA,-0.23
18,CCCGCCGG,-0.195
19,CAATTAAC,-0.0234
20,ACGTAGTC,-0.112
21,CGCAACAC,0.053
22,GCGCAACC,-0.293

row,Sequence,PBM E-score
1,CGCTAGCC,-0.222
2,CTCCTCAA,-0.282
3,CCGATATA,0.113
4,GTTCCCAA,0.0203
5,CTCCCCAA,-0.204
6,AATTATTA,0.221
7,ATCTAAAG,0.0842
8,CCGTTCAG,-0.141
9,AGTTGCCG,-0.128
10,CTTAGGCC,-0.0661
11,ACGTCTAA,0.0583
12,CCTTTTCG,0.108
13,GGTCTAGA,-0.0411
14,CATTACGG,0.0771
15,GCGCATAC,-0.126
16,CACGGTAA,-0.143
17,AAGAGTGG,-0.179
18,GGAACCAA,0.0933
19,GATCCCCC,-0.393
20,GGATACTA,0.0119
21,ACACAGGC,0.00042
22,GAACGTTA,-0.25

row,Sequence,PBM E-score
1,CCGCGTAG,-0.156
2,TAACGCAA,-0.0729
3,GATGATGC,-0.0521
4,GTGCCATA,-0.119
5,GCTAAGCC,-0.193
6,CCGTCCAG,-0.00159
7,GTGTGGTA,-0.0225
8,GTGCTCGA,-0.115
9,AAACGCAA,0.122
10,GAGCATCC,-0.181
11,CGCAATAC,0.0165
12,AGTGCAAC,-0.141
13,GCCAAATA,0.0394
14,GTGGTGCA,-0.211
15,GCCGATCC,-0.109
16,AACCAGAC,-0.0519
17,CCATCTGC,0.0419
18,CCCCATCG,-0.253
19,ATACGGCC,0.0482
20,CGGACATA,0.469
21,GGTCGATA,-0.0246
22,CGACTCCA,-0.0963

row,Sequence,PBM E-score
1,GAGATGAC,-0.0938
2,TATTAGCA,0.0864
3,ACATGCAC,0.00468
4,GACAGCCC,-0.172
5,CCGTAGGC,-0.216
6,GTCACCGA,-0.0677
7,GGATAGTA,0.125
8,CTGATTAC,0.0826
9,CTAGGGAA,-0.00319
10,CTATTGGA,0.0335
11,CTCGACAC,0.0424
12,CGTTGGTA,0.0538
13,CACATGTA,0.121
14,CCCAGTTA,-0.269
15,ACCGCCCG,-0.349
16,CTGTATTA,0.186
17,AGTCTCAT,0.0816
18,AAGTCGGG,0.1
19,GACTTTGA,0.0613
20,CCCAGTGA,-0.0718
